Measurements published in a compilation of properties of binary mixtures (doi:10.1016/j.jct.2014.06.022).
The densities may have been worked out from excess volumes.

Assay: xn = mol fraction of the nth substance listed
Conditions: 100 kPa

CCCCCC[n+]1ccn(C)c1.NC(CCC(=O)O)C(=O)[O-] + O
mass density [kg/m3]
Conditions | 308.15 K | 313.15 K | 318.15 K | 323.15 K | 328.15 K | 333.15 K | 338.15 K | 343.15 K
x1 = 0.7806 | 1107.3 | 1104.8 | 1101.7 | 1099.9 | – | 1094.6 | 1091.9 | –
x1 = 0.8042 | 1109.1 | 1106.6 | – | 1101.6 | 1099.3 | 1097.3 | 1094.6 | –
x1 = 0.8317 | 1112 | 1109.5 | 1106.4 | 1104.5 | 1102.1 | – | – | 1094.8
x1 = 0.8442 | 1113.7 | 1111.2 | 1108.1 | – | 1103.8 | 1100.9 | 1098.3 | –
x1 = 0.8743 | – | 1114 | 1110.9 | 1109 | – | 1103.8 | 1101.2 | 1099.3

CCCCC[n+]1ccn(C)c1.NC(CCC(=O)O)C(=O)[O-] + O
mass density [kg/m3]
Conditions | 308.15 K | 313.15 K | 318.15 K | 323.15 K | 328.15 K | 333.15 K | 338.15 K | 343.15 K
x1 = 0.7926 | 1138.3 | – | 1133.1 | 1130.7 | 1128 | 1125.5 | 1122.6 | 1120
x1 = 0.8113 | 1140.1 | – | 1134.9 | 1132.4 | – | 1127.2 | 1124.3 | 1121.8
x1 = 0.8285 | – | 1140.5 | 1137.8 | 1135.3 | – | 1130.1 | 1127.2 | 1124.7
x1 = 0.844 | 1144.7 | – | 1139.5 | 1136.9 | 1134.3 | 1131.8 | 1129 | 1126.4
x1 = 0.8676 | – | 1145 | 1142.3 | 1139.8 | – | – | 1131.9 | 1129.2
